Test results as given in ChEMBL document CHEMBL5303300, “EUbOPEN Chemogenomics Library - Multiplex” (2023).

How the values were obtained:
U2OS = experiment: Multiplex assay against U2OS; format: toxicity, cell-based; settings: human, number of replicates 2
Outline: (§1)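 Live cells were stained at seeding with Hoechst33342, BioTracker Green Microtubule Cytoskeleton Dye, MitoTracker Red and Annexin V Alexa Fluor 680. Following compound addition, they were imaged on a CQ1 microscope at 37°C and 5% CO2 and gated by CellPathfinder machine learning into Hoechst high-intensity objects or normal cells, with normal cells split into healthy, pyknosed or fragmented nuclei and pyknosed cells into mitotic or apoptotic. Tubulin, mitochondrial-mass and membrane-permeability phenotypes are per cents of healthy-nucleus cells.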

Fibroblast = experiment: Multiplex assay against human fibroblast; format: toxicity, cell-based; settings: 10 µM, compound concentration 10 uM, number of replicates 2; outline: as §1
[1] = 12 h, 1 µM, compound concentration 1 uM
[2] = 12 h, 10 µM, compound concentration 10 uM
[3] = 24 h, 1 µM, compound concentration 1 uM
[4] = 24 h, 10 µM, compound concentration 10 uM
[5] = 48 h, 1 µM, compound concentration 1 uM
[6] = 48 h, 10 µM, compound concentration 10 uM

Row | SMILES | Total Cell Count (U2OS; [1]) | Total Cell Count (U2OS; [2]) | Total Cell Count (U2OS; [3]) | Total Cell Count (U2OS; [4]) | Total Cell Count (U2OS; [5]) | Total Cell Count (U2OS; [6]) | Population Fragmented Nuclei (%) (U2OS; [2]) | Population Mitotic Cells (%) (U2OS; [2]) | other results
1 | COc1ccncc1C(=O)NC(=O)Nc1ccc(-c2ccccc2)c(C(F)(F)F)c1 | 26 and 235 | 49 and 228 | 38 and 305 | 59 and 316 | 50 and 665 | 127 and 639 |  |  | Population Fragmented Nuclei (%) (U2OS; [1]): 23% and 3%; Population Fragmented Nuclei (%) (U2OS; [3]): 21% and 2%; Population Fragmented Nuclei (%) (U2OS; [5]): 20% and 2%
2 | COc1ccc2cc(S(=O)(=O)N[C@H](CC(=O)N[C@H](Cc3ccc(CN4[C@H](C)CCC[C@@H]4C)cc3)C(=O)N(C)C(C)C)c3ccc4c(c3)OCO4)ccc2c1.Cl | 35 and 221 | 33 and 207 | 40 and 292 | 33 and 246 | 64 and 409 | 27 and 261 | 31% and 2% | 0% and 33% | Population Fragmented Nuclei (%) (U2OS; [6]): 37% and 6%
3 | CSc1cc2c(cc1C(F)(F)F)N(C(=O)Nc1cccnc1)CC2 | 34 and 252 | 163 and 27 | 39 and 341 | 37 and 259 | 61 and 677 | 557 and 50 | 4% and 38% |  | Population Fragmented Nuclei (%) (U2OS; [1]): 20% and 1%; Population Fragmented Nuclei (%) (U2OS; [3]): 17% and 3%; Population Fragmented Nuclei (%) (U2OS; [4]): 22% and 4%; Population Mitotic Cells (%) (U2OS; [4]): 0% and 55%; Population Mitotic Cells (%) (U2OS; [5]): 16% and 53%
4 | COc1ccccc1-c1cc(Nc2cccc(CS(N)(=O)=O)c2)ncn1 | 36 and 214 | 243 and 46 | 61 and 305 | 280 and 54 | 88 and 584 | 74 and 396 | 5% and 36% |  | Population Membrane Permeable-Phenotype (%) (U2OS; [2]): 2% and 13%; Population Fragmented Nuclei (%) (U2OS; [3]): 21% and 3%; Population Fragmented Nuclei (%) (U2OS; [4]): 3% and 18%; Population Membrane Permeable-Phenotype (%) (U2OS; [4]): 1% and 17%
5 | COc1ccc(CC[C@@H](OC(=O)[C@@H]2CCCCN2C(=O)[C@H](c2cc(OC)c(OC)c(OC)c2)C2CCCCC2)c2cccc(OCCN3CCOCC3)c2)cc1OC | 37 and 210 | 42 and 214 | 43 and 263 | 44 and 220 | 60 and 382 | 50 and 234 | 29% and 4% | 0% and 29% | Population Mitochondria Different-Phenotype (%) (U2OS; [3]): 10% and 39%; Population Mitotic Cells (%) (U2OS; [4]): 26% and 3%; Population Mitotic Cells (%) (U2OS; [5]): 42% and 12%
6 | CC(C)c1c(NC(=O)Nc2ccc(Cl)cc2)c(=O)n(-c2ccccc2)n1C | 30 and 253 | 31 and 240 | 38 and 320 | 43 and 340 | 66 and 686 | 57 and 699 | 70% and 2% | 0% and 56% | Population Fragmented Nuclei (%) (U2OS; [1]): 23% and 4%; Population Healthy Nuclei (%) (U2OS; [2]): 22% and 90%; Population Fragmented Nuclei (%) (U2OS; [3]): 15% and 3%; Population Fragmented Nuclei (%) (U2OS; [4]): 65% and 3%; Population Mitotic Cells (%) (U2OS; [4]): 0% and 63%; Population Fragmented Nuclei (%) (U2OS; [6]): 66% and 2%; Population Mitotic Cells (%) (U2OS; [6]): 0% and 44%
7 | COc1cc(N(C)c2ccnc3ccc(C(F)(F)F)cc23)cc(OC)c1OC | 222 and 22 | 29 and 174 | 28 and 325 | 32 and 219 | 52 and 663 | 46 and 418 | 27% and 4% |  | Population Fragmented Nuclei (%) (U2OS; [1]): 4% and 22%; Population Fragmented Nuclei (%) (U2OS; [4]): 25% and 5%; Population Fragmented Nuclei (%) (U2OS; [6]): 15% and 3%
8 | CC(C)S(=O)(=O)c1ccccc1Nc1nc(N[C@@H]2CCCN(CCCCCCCNC(=O)COc3cccc4c3C(=O)N(C3CCC(=O)NC3=O)C4=O)C2)ncc1Cl (stereo partly specified) | 41 and 224 | 42 and 274 | 45 and 240 | 52 and 259 | 49 and 234 | 243 and 46 |  |  | Population Mitochondria Different-Phenotype (%) (U2OS; [4]): 20% and 72%; Population Fragmented Nuclei (%) (U2OS; [5]): 22% and 7%; Population Membrane Permeable-Phenotype (%) (U2OS; [5]): 36% and 4%; Population Mitochondria Different-Phenotype (%) (U2OS; [5]): 18% and 4%; Population Membrane Permeable-Phenotype (%) (U2OS; [6]): 51% and 0%; Population Mitochondria Different-Phenotype (%) (U2OS; [6]): 51% and 0%; Population Tubulin-Different-Phenotype (%) (U2OS; [6]): 88% and 0%
9 | CS(=O)(=O)c1ccc(C(=O)Nc2cccc(COc3cc(F)c(Br)cc3CN3CC[C@H](O)C3)c2)c(Cl)c1.O=CO | 42 and 190 |  | 50 and 281 |  | 63 and 466 | 90 and 275 |  |  | 
10 | CC(C)NC(=O)[C@H]1CCC[C@H]1Nc1nc(Nc2ccc(C(=O)N(C)C3CCN(C)CC3)cc2)ncc1Cl | 40 and 164 | 23 and 180 | 34 and 187 | 30 and 185 | 178 and 43 | 26 and 165 | 26% and 6% | 0% and 30% | Population Mitotic Cells (%) (U2OS; [3]): 57% and 12%; Population Fragmented Nuclei (%) (U2OS; [4]): 43% and 5%; Population Fragmented Nuclei (%) (U2OS; [6]): 53% and 3%; Population Healthy Nuclei (%) (U2OS; [6]): 7% and 45%; Population Mitochondria Different-Phenotype (%) (U2OS; [6]): 0% and 29%
11 | CS(=O)(=O)c1ccc(C(=O)Nc2cc(F)c(F)c(COc3cc(F)c(Br)cc3CN3CC[C@H](O)C3)c2)c(Cl)c1.O=CO | 48 and 202 | 137 and 38 | 62 and 281 | 37 and 149 | 88 and 464 | 145 and 31 |  |  | 
12 | CS(=O)(=O)c1ccc(C(=O)Nc2ccc(F)c(COc3ccc(Br)cc3CNCCO)c2)c(Cl)c1.O=CO | 40 and 263 | 37 and 194 | 51 and 321 | 51 and 233 | 77 and 599 | 53 and 321 |  |  | 
13 | CN[C@@H](C)C(=O)N[C@H](C(=O)N1CCC[C@H]1C(=O)N[C@H](C(=O)NCCCCCCNC(=O)[C@@H](NC(=O)[C@@H]1CCCN1C(=O)[C@@H](NC(=O)[C@H](C)NC)C1CCCCC1)C(c1ccccc1)c1ccccc1)C(c1ccccc1)c1ccccc1)C1CCCCC1 (I: H-[NMeA][Chg]P[Dip] / II: H-[NMeA][Chg]P[Dip]; linker I:C-II:C via Hexamethylenediamine) |  | 196 and 55 |  | 62 and 257 | 92 and 363 | 414 and 90 | 6% and 21% |  | Population Fragmented Nuclei (%) (U2OS; [1]): 50% and 2%; Population Fragmented Nuclei (%) (U2OS; [3]): 40% and 1%; Population Tubulin-Different-Phenotype (%) (U2OS; [3]): 25% and 77%; Population Mitochondria Different-Phenotype (%) (U2OS; [4]): 5% and 16%; Population Fragmented Nuclei (%) (U2OS; [5]): 33% and 7%; Population Mitotic Cells (%) (U2OS; [6]): 5% and 23%
14 | O=C1Nc2ccc(C(=O)c3ccco3)cc2C1=Cc1cc(Cl)c(O)c(Cl)c1 [GW406108X] | 34 and 231 | 33 and 188 | 47 and 321 | 45 and 264 | 88 and 657 | 53 and 449 |  | 16% and 52% | Population Mitotic Cells (%) (U2OS; [4]): 12% and 56%; Population Mitotic Cells (%) (U2OS; [6]): 10% and 48%
15 | CC(C)N1CCN(Cc2cnc(-c3cc(-c4cccc5[nH]ccc45)cc4[nH]ncc34)o2)CC1 [NEMIRALISIB] | 40 and 304 | 53 and 202 | 44 and 401 | 49 and 221 | 82 and 742 | 66 and 307 |  |  | Population Mitochondria Different-Phenotype (%) (U2OS; [2]): 6% and 28%
16 | CC(=O)O[C@H]1C(=O)[C@@]2(C)[C@H]([C@H](OC(=O)c3ccccc3)[C@]3(O)C[C@H](OC(=O)[C@H](O)[C@@H](NC(=O)c4ccccc4)c4ccccc4)C(C)=C1C3(C)C)[C@]1(OC(C)=O)CO[C@@H]1C[C@@H]2O [PACLITAXEL] |  |  |  |  |  |  |  |  | Population Tubulin-Different-Phenotype (%) (Fibroblast; 24 h): 7, 23, 12, 10%; Population Mitotic Cells (%) (Fibroblast; 48 h): 7, 17, 13, 28%
17 | CCN1C(=O)N(c2c(F)c(OC)cc(OC)c2F)Cc2cnc3[nH]c(CN4CCOCC4)cc3c21 [PEMIGATINIB] | 64 and 195 | 31 and 169 |  | 27 and 197 | 136 and 504 | 36 and 261 | 25% and 5% |  | Population Mitotic Cells (%) (U2OS; [3]): 45% and 9%
18 | Cl.Clc1ccc2nsnc2c1NC1=NCCN1 [TIZANIDINE HYDROCHLORIDE] | 41 and 298 | 39 and 265 | 62 and 409 | 55 and 356 |  | 86 and 811 |  | 0% and 72% | Population Apoptotic (%) (U2OS; [2]): 100% and 27%; Population Mitotic Cells (%) (U2OS; [3]): 0% and 41%; Population Apoptotic (%) (U2OS; [4]): 0% and 47%; Population Mitotic Cells (%) (U2OS; [4]): 0% and 52%; Population Mitotic Cells (%) (U2OS; [6]): 11% and 61%

Not every entry of the source has a single result; some have several. The list is limited to them. There may be further records. The records of an entry are repeats in other runs, samples, wells, individuals or studies. *1 amine or outer side, *2 acyl side, *3 side chain or, on linkers, in order; H or OH if unused. Where a SMILES comes first, the peptide text is derived from it. Bridges are numbered along the chain shown (N, C = ends). Roman numbers before positions name the chains, in order. [ ]: non-standard residue; d: D form. Hexamethylenediamine = C(CCCN[*:2])CCN[*:1]; Dip = N[C@H](C(=O)O)C(c1ccccc1)c1ccccc1; Chg = N[C@H](C(=O)O)C1CCCCC1; NMeA = CN[C@@H](C)C(=O)O
